# Measured values published in the supplement of paper PMC4166925.
# ± gives the standard deviation of the averaged measurements. The full ranking holds about 33,000 sequences; the median of “E-score (dimensionless, -0.5 to 0.5)” is about -0.049, and the highest 2% start at about 0.37. This is one part of the list.
# System: T1, PmTbr T-box DNA-binding domain (GST fusion)
# T1 sequence: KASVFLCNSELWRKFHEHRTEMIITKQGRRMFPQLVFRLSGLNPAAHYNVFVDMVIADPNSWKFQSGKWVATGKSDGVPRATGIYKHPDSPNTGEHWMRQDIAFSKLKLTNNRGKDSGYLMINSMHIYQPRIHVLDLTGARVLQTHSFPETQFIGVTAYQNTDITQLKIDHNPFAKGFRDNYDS
# Assay: PBM E-score of 8-mer (E-score (dimensionless, -0.5 to 0.5)); Tbr is Tbrain of the sea star Patiria miniata (Pm) or the sea urchin Strongylocentrotus purpuratus (Sp); higher = stronger binding preference; most listed sequences are background and not binding sites
# Settings: the construct has about 5 more residues each side
# Procedure: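 Universal protein-binding microarray (Agilent AMADID 016060, 60-bp probes with a 35-bp variable region) incubated with 200 nM GST-fused Patiria miniata Tbr T-box DNA-binding domain (residues 272-466) in PBS pH 7.5. Scored for every ungapped 8-mer (given with its reverse complement) by the Universal PBM Analysis Suite as E-score (modified Wilcoxon-Mann-Whitney enrichment, range -0.5 to 0.5; >0.45 counts as bound) and Z-score of median probe intensity. Two replicate arrays (datasets 1 and 2).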
# 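Note: 200 nM protein in PBS on universal arrays averaged over duplicate arrays.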
row,Sequence,PBM E-score of 8-mer
1,ACCTCACG,0.269 ± 0.038
2,GGTATCGA,0.0352 ± 0.024
3,CTAATGCC,0.118 ± 0.048
4,AGAGGATG,0.0588 ± 0.029
5,AACACAGG,0.0564 ± 0.018
6,CGTGAACC,0.229 ± 0.044
7,CTTCGGTA,-0.146 ± 0.048
8,AGTTCGAA,-0.211 ± 0.039
9,GTAACAAA,0.107 ± 0.021
10,CACTGACC,-0.0204 ± 0.064
11,CTCTCAAC,0.0948 ± 0.01
12,GCCTCTTA,-0.0658 ± 0.019
13,AGGCTAAG,-0.143 ± 0.082
14,CGATTACC,-0.0566 ± 0.046
15,AGACAAAT,-0.0765 ± 0.0098
16,CTTCGCTA,0.0621 ± 0.035
17,TCAGAGAA,-0.0818 ± 0.027
18,CATATAAG,-0.0999 ± 0.03
19,ACCGTATC,-0.0999 ± 0.068
20,CTTCATAA,0.015 ± 0.055
21,AATACCGC,0.00922 ± 0.035
22,CCACTAGG,-0.112 ± 0.044
23,CATTGACC,-0.161 ± 0.099
24,ACTTCCAT,0.0717 ± 0.077
25,GGGTCCTA,-0.208 ± 0.049

row,Sequence,PBM E-score of 8-mer
1,GGTCGCAC,0.373 ± 0.018
2,CGACAACA,0.274 ± 0.023
3,ATTTTCCA,0.0388 ± 0.093
4,GCTGTGCC,0.148 ± 0.03
5,CCAATAAG,-0.115 ± 0.033
6,GAGCTACC,-0.0818 ± 0.12
7,GAGAAGCC,-0.134 ± 0.014
8,TGCCCGAA,-0.112 ± 0.12
9,GTATCCGA,-0.227 ± 0.015
10,CCACGGAA,-0.116 ± 0.063
11,GAAGTCGC,0.167 ± 0.015
12,ACGCCTTA,0.3106 ± 0.0022
13,CGTCAGTA,0.0359 ± 0.018
14,AAAACGAG,-0.213 ± 0.052
15,CCGGCGAG,-0.0425 ± 0.019
16,GAGGGAGC,-0.0495 ± 0.077
17,AGGTTTAA,-0.0552 ± 0.0037
18,TGATATAA,0.104 ± 0.029
19,ATCCCCTG,-0.119 ± 0.089
20,ACTGCTTG,-0.144 ± 0.052
21,ACTACAGA,-0.0956 ± 0.069
22,GTCATCAC,0.2787 ± 0.00098
23,GCCTCTCC,-0.183 ± 0.0065
24,AATATTAG,0.0424 ± 0.036
25,ATCGCGCA,0.119 ± 0.0083

row,Sequence,PBM E-score of 8-mer
1,GAACACAA,0.00999 ± 0.046
2,AAGCCATC,-0.164 ± 0.047
3,ATGCTGAA,-0.23181 ± 2.8e-05
4,CAGCCGAC,0.00225 ± 0.012
5,ATTAGTTA,-0.178 ± 0.053
6,CACGTCCA,0.131 ± 0.039
7,AGACCTGA,-0.102 ± 0.055
8,TCCTTAGA,-0.289 ± 0.043
9,AGACTATC,-0.0496 ± 0.00072
10,ATTCAGTG,0.0227 ± 0.023
11,TAGGGAGA,-0.156 ± 0.022
12,AGGCGTGC,0.158 ± 0.011
13,ACAGTAGG,-0.0261 ± 0.0057
14,AGCGCACG,0.0955 ± 0.067
15,AACACTGA,0.182 ± 0.069
16,GCAGAGCC,0.0176 ± 0.016
17,CTATTGCC,-0.254 ± 0.0039
18,AACTCATC,-0.12 ± 0.053
19,GGGCTAAC,0.0916 ± 0.0092
20,CGGCGTGC,-0.0675 ± 0.043
21,AGAATCAA,-0.109 ± 0.1
22,AACGGAAG,-0.135 ± 0.088
23,CCGTTCAA,-0.12 ± 0.032
24,GTAATCCA,-0.117 ± 0.021
25,CACGCTAG,0.0508 ± 0.031

row,Sequence,PBM E-score of 8-mer
1,CCGAAACC,-0.24 ± 0.0048
2,ACTCCATG,-0.0836 ± 0.065
3,GTGCTACA,0.216 ± 0.008
4,GGATCCCC,-0.0056 ± 0.027
5,CATCTGCA,-0.187 ± 0.045
6,CTTGGCCC,-0.22 ± 0.073
7,AGCTTGTG,0.143 ± 0.005
8,GTTGCCCA,-0.217 ± 0.0084
9,TTCGAAAA,-0.215 ± 0.038
10,ATTTAGCA,0.308 ± 0.04
11,TAGCAGAA,-0.117 ± 0.1
12,AGGATGAG,-0.0868 ± 0.03
13,AGGGAGAC,-0.221 ± 0.0058
14,CCTCTGGC,-0.0366 ± 0.16
15,ACGTGGAA,-0.0444 ± 0.09
16,AAGTAGTA,-0.0335 ± 0.018
17,ATACTCCC,-0.231 ± 0.014
18,CGCGAATC,0.349 ± 0.013
19,ACCAAGAA,-0.0879 ± 0.0044
20,CAATGAAG,0.0359 ± 0.053
21,AATAGTAT,-0.0339 ± 0.063
22,ATGGGGCC,-0.131 ± 0.058
23,AACAGAGA,-0.0359 ± 0.0044
24,CTATGTTC,-0.1107 ± 0.00022
25,CCATCAAC,0.0186 ± 0.048

row,Sequence,PBM E-score of 8-mer
1,AGACCACT,-0.234 ± 0.093
2,AATAAGTC,-0.0952 ± 0.073
3,GCCAGCGA,0.0801 ± 0.013
4,AACTTATT,-0.181 ± 0.039
5,AACGGTTA,0.0723 ± 0.092
6,ACACTAGC,0.204 ± 0.018
7,CGGACACG,0.187 ± 0.0075
8,AACTGTAG,-0.00946 ± 0.017
9,AAGTATCC,-0.128 ± 0.069
10,CGGGGGTC,-0.203 ± 0.0094
11,AAATACAA,-0.267 ± 0.06
12,GCCTGTAC,-0.194 ± 0.036
13,CACTTCGC,0.369 ± 0.014
14,CATGAAAA,-0.257 ± 0.055
15,GGGAACCC,-0.0946 ± 0.0084
16,CCGGCTCG,-0.286 ± 0.035
17,CGACGAGA,0.118 ± 0.022
18,TACATCAA,-0.2435 ± 0.0014
19,CCGACTCG,-0.0676 ± 0.02
20,AGATTTGG,-0.0243 ± 0.012
21,CACAACCA,0.151 ± 0.068
22,GAGTGGGC,-0.156 ± 0.07
23,AATTCTGC,0.0123 ± 0.029
24,AAGCGGCG,0.000685 ± 0.032
25,CTAGTCAA,-0.0553 ± 0.034

row,Sequence,PBM E-score of 8-mer
1,GGGTAGAC,-0.163 ± 0.012
2,CGGCCAAG,-0.0187 ± 0.09
3,ACCATGAT,0.0699 ± 0.037
4,TTGGCAAA,0.134 ± 0.012
5,TAATGGCA,0.0707 ± 0.024
6,CTCTTGCA,-0.12 ± 0.023
7,ATCTCACC,0.409 ± 0.0061
8,ACCTTGAC,0.319 ± 0.045
9,ACATCCTC,0.153 ± 0.036
10,CGCTCGCC,0.00704 ± 0.024
11,CTCCGCGA,0.219 ± 0.0075
12,AGTCTCCA,-0.191 ± 0.025
13,GGTGTGTA,0.341 ± 0.013
14,GCTCAAGA,-0.114 ± 0.0041
15,CTGTATTC,-0.0466 ± 0.024
16,CCATTGCC,-0.0332 ± 0.013
17,CCGAATCC,-0.201 ± 0.01
18,CCGATGAG,-0.275 ± 0.033
19,ACGCTAAT,0.114 ± 0.018
20,CAGGACGG,-0.224 ± 0.018
21,ACAGTGCT,-0.0609 ± 0.0039
22,ATCTCAAT,-0.0703 ± 0.055
23,AGTCACTG,-0.125 ± 0.055
24,CTCCTTAA,-0.0466 ± 0.0025
25,GGCTGGAC,-0.233 ± 0.016

row,Sequence,PBM E-score of 8-mer
1,ATTTAAAC,-0.0947 ± 0.12
2,ACGAACTC,0.0164 ± 0.041
3,ATATGTCG,0.134 ± 0.029
4,AATATACA,-0.199 ± 0.034
5,CGTGTTCA,0.0211 ± 0.032
6,GGTGGTGA,0.294 ± 0.042
7,TAACCTTA,-0.0986 ± 0.065
8,CACTCACC,0.295 ± 0.04
9,AAGGCTCT,-0.227 ± 0.0089
10,AGTCCCCC,-0.123 ± 0.034
11,AGAAGAAT,-0.138 ± 0.095
12,ATGTCCCC,-0.139 ± 0.0077
13,ATTACTTC,-0.201 ± 0.065
14,CCTTTGGA,-0.044 ± 0.011
15,CTCTTAAA,-0.0992 ± 0.023
16,CTTATATC,-0.0871 ± 0.07
17,AGGATAGA,-0.1812 ± 0.0017
18,AGATCCCC,-0.158 ± 0.02
19,CCTAATCA,0.0346 ± 0.0071
20,AGCCCATG,-0.105 ± 0.042
21,AGTCTCGG,-0.164 ± 0.057
22,ATGGCATA,-0.133 ± 0.013
23,CGACTATA,-0.153 ± 0.056
24,AGCCCTAA,-0.161 ± 0.044
25,ACACACGA,0.0245 ± 0.0067

row,Sequence,PBM E-score of 8-mer
1,CTATCCAC,-0.0558 ± 0.1
2,ACTGGATC,-0.145 ± 0.07
3,ATACTGCA,-0.0781 ± 0.055
4,CGCCACTC,0.226 ± 0.0046
5,CAGATCAG,-0.0487 ± 0.023
6,AAAGCGCC,-0.0541 ± 0.027
7,AAATGAAT,-0.218 ± 0.048
8,AGATAATA,-0.0641 ± 0.035
9,CGTTCCTA,-0.0122 ± 0.086
10,AGAGAAAT,0.0644 ± 0.032
11,AAACGTGG,0.0598 ± 0.0041
12,GAGGTGCA,0.367 ± 0.0099
13,GCTCCTAA,-0.108 ± 0.0091
14,AGGATCCC,-0.0401 ± 0.0023
15,GGTCAAAC,-0.162 ± 0.042
16,CCCTCGCA,0.163 ± 0.024
17,GCAACTGA,0.12 ± 0.0076
18,GCTCAGAA,-0.216 ± 0.054
19,GTCGGAAC,-0.139 ± 0.014
20,ACACGCAG,0.198 ± 0.042
21,GGGATAAA,-0.0387 ± 0.029
22,ACTTTAAG,0.00731 ± 0.087
23,CCTTTTGC,0.0403 ± 0.052
24,GCATCCGC,-0.0652 ± 0.048
25,ACGCCTGC,0.24 ± 0.0036

row,Sequence,PBM E-score of 8-mer
1,ATCGGCCC,-0.338 ± 0.011
2,AAACAGAA,-0.0563 ± 0.0088
3,CCTCACTA,0.0838 ± 0.004
4,TATTAGGA,-0.186 ± 0.02
5,CTTCCAGA,-0.274 ± 0.11
6,CGGCGTAA,-0.126 ± 0.0027
7,CTCATACA,0.0245 ± 0.04
8,AATTCCAA,-0.0744 ± 0.062
9,GCATGTGA,0.182 ± 0.024
10,GTCGCATA,0.111 ± 0.033
11,GACATGCA,-0.00971 ± 0.037
12,ATGGGTCG,-0.0966 ± 0.029
13,CGACAGCA,0.0457 ± 0.066
14,CGACCTTC,0.0966 ± 0.04
15,AGGCCTTC,-0.118 ± 0.01
16,ACCTGAGT,0.0149 ± 0.011
17,AGATACAG,-0.184 ± 0.0075
18,ACTGGCAG,0.0702 ± 0.038
19,GATCTCGA,0.0328 ± 0.028
